Experimental data published in the supplement of paper PMC10126150.
Values marked as one replicate rest on one cluster of the flow cell; about a third of the high ones do not repeat.

Tested on: ATP
Assay: switch fluorescence ratio, 500 uM ATP over buffer (Cy3 cluster intensity, sum of 5 cycles each) (fold (ratio)); higher = stronger signal-on switching upon ATP binding; sequences stand for … in TCGTCGGCAGCGTCAGATGTGTATAAGAGACAGTTTTTTTTTTTTTTTTTTTTTTTTT…TC
Conditions: aptamer strand: ATP DNA aptamer (quencher-CACCTGGGGGAGTATTGCGGAGGAAGG + anchor), 100 nM annealed; ATP concentration: 500 uM; one replicate
How it was run: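 The quencher-labelled ATP aptamer, at 100 nM, was annealed to Cy3-labelled switching-strand clusters on a modified Illumina MiSeq flow-cell. The clusters were imaged in selection buffer, then after 15 min with 500 uM ATP at 22 °C, and this buffer/ATP cycle ran five times with NaOH stripping and re-annealing between runs. Per-cluster fluorescence ratios, summed target-cycle over summed buffer-cycle Cy3 intensity, were averaged per switch-domain sequence. Clusters outside 100-1000 RFU were excluded.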
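Note: ATP exposure 15 min at 22 °C before imaging.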

Row | Sequence | switch fluorescence ratio
1 | AGCGAACACG | 1.08
2 | TATGTCTTCC | 1.65
3 | CCTTTAGTAC | 1.57
4 | TGAATAGTAG | 1.01
5 | TTGGTCTTAA | 1
6 | CGTTGGGCCA | 0.899
7 | TGCCCGAATT | 1.04
8 | GGGTAGCACG | 1.02
9 | CGGCGATACG | 2.82
10 | TTTTAGATTC | 0.999
11 | TGTGAATGTG | 0.978
12 | TTGAGCCGAT | 0.943
13 | GGTATGAATA | 1.03
14 | TGGCTGGGAT | 1
15 | CCCACGTTCG | 1
16 | CAAGTAAGGA | 1.06
17 | TTCTATCGGG | 0.992
18 | GATCTAGTGG | 0.983
19 | TCTATTAATT | 0.991
20 | AATAGCGAGC | 0.974
21 | ATGAAGTGG | 1
22 | CACTTTGTGG | 1.01
23 | TCATGGTGCG | 1.02
24 | ACGACTATCC | 1.21
25 | CATGGTGGAT | 1.05
26 | CATTGGCGGG | 1

Row | Sequence | switch fluorescence ratio
27 | ACACCAGCGA | 0.732
28 | GACCGCACAG | 1.22
29 | GGATAAACAC | 1.02
30 | AAATATGTGT | 0.985
31 | GCTAGGCGGC | 1.03
32 | GGGTTGACGT | 1.05
33 | GAAAAGCACG | 1.36
34 | TGGCAGGATA | 0.97
35 | CCCACGCTCC | 3.18
36 | TTAATTGTCC | 0.979
37 | TAAGCCTCGA | 1.03
38 | TGTTCATTAG | 0.97
39 | TTAATCAACG | 1.04
40 | GGCGTGCAGA | 1.01
41 | GCGGTCAATC | 1.12
42 | GCCAGGTCGC | 1.02
43 | TGACCTGGGC | 1.03
44 | CATAGGCGGC | 0.971
45 | CATTCGCTCT | 1.54
46 | TGGCCCAGGA | 1.23
47 | ACTAGGACAG | 1.02
48 | TATAGAGAT | 0.991
49 | GGGTTACGG | 0.955
50 | GCTATGCATG | 1.01
51 | TGGTAAGTAG | 1.04
52 | TAAGAAGTGT | 1.05

Row | Sequence | switch fluorescence ratio
53 | GTCATTTTAA | 0.992
54 | TACCGCGTGA | 1.02
55 | TGCAGAGCCT | 0.983
56 | AACACTAACA | 1.1
57 | CATGAACAGG | 1.06
58 | TATGTGCTCA | 0.991
59 | TCTTAATTAC | 1.07
60 | GGCGCTGTGT | 0.965
61 | GCCTGTGGTC | 0.967
62 | ATTAATTCTT | 0.932
63 | CTAAGGGTCC | 0.934
64 | TAGCCTGTTT | 0.967
65 | AGCGTTGTAG | 1.03
66 | GCTTCATCTG | 1.22
67 | CGAGTCGAGA | 0.976
68 | CAGTTTTCTA | 0.98
69 | TCCCCTGTCC | 1.1
70 | ATCGTACCGG | 1.02
71 | GGAACTAGGT | 0.959
72 | ATGGGGTGAC | 0.986
73 | CAAATAGTAG | 0.962
74 | CAAACGCGAA | 4.27
75 | TACATCCATA | 1.02
76 | GGGCGTGAGT | 1.04
77 | ATTGGGAAGC | 0.929
78 | GGTCCATAGC | 1.07

Row | Sequence | switch fluorescence ratio
79 | ACATCTTTGC | 0.999
80 | TCCGTGAGAC | 3.69
81 | ACATAACATA | 1.13
82 | CAGTTTTCTG | 0.964
83 | CCACCTATGA | 1.09
84 | CACCCATCGT | 1.04
85 | AAATTCTCAG | 1.04
86 | TCGTACTGCG | 1.04
87 | TTGAGTGGTG | 0.962
88 | GCTTTTGATT | 0.971
89 | AGCGTCTCAA | 1.01
90 | CGTTATGTGT | 1.03
91 | AAAAGGCCTG | 0.95
92 | TACCGGAACA | 1.03
93 | ATAAACTAAA | 0.97
94 | GGCATACTTG | 1.02
95 | TCCCCTGCTC | 1.58
96 | GAGTAGCGCG | 0.976
97 | AGGGTAATGA | 1
98 | ACTCACTTAG | 1.16
99 | ATCAGTCGTA | 1.04
100 | GCCGTACGAA | 0.975
101 | TGTCGGTATG | 0.976
102 | CGGTCCAAAG | 0.98
103 | TACCATTTGC | 1
104 | TAACGGCTTT | 0.994

Row | Sequence | switch fluorescence ratio
105 | TGGTTATGCT | 0.957
106 | TGCGATGGCG | 0.994
107 | ATTACATTGG | 0.985
108 | TCACAAGATG | 0.997
109 | CGTGCTCGTA | 0.992
110 | TAGCGTTGTA | 1.03
111 | GGTATTGCAG | 0.946
112 | CTGGGTGACC | 1
113 | GTATTGCTAA | 0.964
114 | TCGTGATGCT | 0.92
115 | GACACATGCC | 1.04
116 | GTGGAGGAGC | 1
117 | GGGTTGTACT | 0.984
118 | AAGGGAACCA | 1.01
119 | GTACGGGACT | 1.28
120 | ATACGTCCTG | 1.05
121 | TATTGCGTTG | 1
122 | AGAATTGTAG | 0.981
123 | ATTCTGTTAA | 1.01
124 | ATTCGCTTGG | 1.04
125 | GGATTTTATT | 1.05
126 | GCTAATTGAG | 1.02
127 | CGGACGCTTA | 2.09
128 | GTGTAAACAG | 1.02
129 | GTTTAGCCCT | 0.998
130 | CCTCGCTTTG | 1.71

Row | Sequence | switch fluorescence ratio
131 | TGCGCGGGTA | 1.13
132 | ACACTGCG | 1
133 | CTTCACCAC | 1.04
134 | ACACTGGATC | 1.02
135 | GCGCACTTTA | 1.02
136 | GAACTGCAGA | 1.04
137 | CCTCCAAAGG | 3.25
138 | CAAGTTTTTC | 0.977
139 | TTATTTCGG | 0.999
140 | TTCTGATGAA | 0.979
141 | ATTAGCGGTG | 1.03
142 | CGGATTTTAG | 1.03
143 | ATTTGACAAG | 1.05
144 | CTGCTTCGTC | 1
145 | CGTATTAGTT | 0.975
146 | TAATGCGAA | 1.03
147 | GGTACTCATA | 1.01
148 | AACTGGATGC | 0.971
149 | CGCATGGATG | 1.01
150 | GACCTGTTGT | 1.02
151 | GGTATCGTC | 0.979
152 | TACGGCAAAA | 1.31
153 | CCGGACCCCA | 1.31
